Screen size: about 360,000 compounds; about 7,500 (2.1%) were called active. Inconclusive means that the source gave no clear call. Such entries were picked first, then a sample of the others. Calls follow the shape of the dose curve; as a rule, active = well fitted cell-killing curve with a large enough effect; inconclusive = small, poorly fitted or top-dose-only effect, or effect the other way, or another doubt; inactive = no such curve, though single readings can be large or run the other way. No potency is given beside an inconclusive call; the fits are too rough.
Test: qHTS for induction of synthetic lethality in tumor cells producing 2HG: qHTS for the HT-1080-IDH1KD cell line;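 as to activity, negative = toxicity: 0% = DMSO wells and -100% = cell-free medium wells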
Settings: HT-1080 IDH1 knockdown viability, ATP luminescence, 48 h; activity, negative = toxicity: at 46.1 µM (top of the series) unless noted
How it was run: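 HT-1080-IDH1KD cells (IDH1 knocked down), 750/well in RPMI with 5% FBS, treated with compound 48 h at 37 degrees C. Viability by CellTiter-Glo luminescence, normalised to DMSO and no-cell wells; concentration-response curves classed.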
For `O=C(CN(c1ccc(F)cc1)S(=O)(=O)c1ccc2c(c1)OCCO2)NCc1ccccc1`, the Potency was inconclusive [cytotoxic, single point].
For `CC1(Cc2ccccc2C#N)C(=O)Nc2ccc(-c3ccccc3)cc21` (stereo not given), the Potency was inconclusive [cytotoxic, single point].
For `O=C(Nc1nnc(-c2cc(Cl)ccc2Cl)o1)c1ccco1`, the Potency was “inactive”.
In the case of `O=C(Nc1ccc(F)c(Cl)c1)Nc1nnc([C@H]2C[C@H](O)[C@@H](CO)O2)s1`, the Potency is reported as “inactive”.
With `CN1C(=O)N(CC(=O)N2CCN(S(=O)(=O)c3ccc4c(c3)CCC4)CC2)C(=O)C12CCCCC2` the Potency was “inactive”.
In the case of `Cc1ccc2cc(C#N)c(NCCNC(=S)NCCCN(C)C)nc2c1C`, the Potency is reported as inconclusive [cytotoxic, single point].
With `CCOc1ccc(NS(=O)(=O)c2cc(NC(=O)c3ccc(C)cc3)ccc2Cl)cc1` the Potency was active: 3.66 µM.
With `Fc1ccc(CN2C3=NCCN3c3ccccc32)cc1` the Potency was “inactive”.
With `CC(=O)N1Cc2cc(C(=O)NCc3cccc(F)c3)nc(-c3cccc(C4=CCCCC4)c3)c2[C@H]1CCO` the Potency was inconclusive [cytotoxic, single point].
In the case of `COc1ccccc1CCC(=O)OCC(=O)N1CCN(S(=O)(=O)c2ccc(C)cc2C)CC1`, the Potency is reported as inconclusive [cytotoxic, single point].
For `O=C(CSc1nc2ncc(Cl)cc2[nH]1)Nc1cccc(F)c1`, the Potency was inconclusive [cytotoxic, single point].
For `C[C@H](CO)N1C[C@H](C)[C@@H](CN(C)C(=O)Nc2ccc(C(F)(F)F)cc2)Oc2c(NC(=O)NC3CCCCC3)cccc2C1=O`, the Potency was “inactive”.
For `CCN1C(=O)c2cccc3c(S(=O)(=O)Nc4ccccn4)ccc1c23`, the Potency was inconclusive [cytotoxic, partial curve].
In the case of `COc1ccc(N(CC(O)CN2CCOCC2)S(=O)(=O)c2ccc(C)cc2)cc1` (stereo not given), the Potency is reported as inconclusive [rising, single point].
For `CCOC(=O)Cc1nnc2c(Nc3ccccc3F)nc3nonc3n12`, the Potency was inconclusive [cytotoxic, partial curve].
In the case of `Cc1ccc(OCC(=O)Nc2oc(-c3ccccc3)c(-c3ccccc3)c2C#N)cc1`, the Potency is reported as inconclusive [cytotoxic, single point].
In the case of `COC(=O)C(Cc1ccc(O)cc1)NC(=O)CCOc1ccc(OC)cc1` (stereo not given), the Potency is reported as “inactive”.
For `Cc1cnc(C)c(Nc2nc(C(N)Cc3ccccc3)cs2)n1` (stereo not given), the Potency was inconclusive [cytotoxic, single point].
In the case of `COc1ccccc1Cc1c(-c2ccco2)nc2ccc(Br)cn12`, the Potency is reported as inconclusive [cytotoxic, single point].
For `CC1CCCN(S(=O)(=O)c2ccc(C(=O)Nc3sc4c(c3C(N)=O)CCN(C)C4)cc2)C1` (stereo not given), the Potency was inconclusive [cytotoxic, single point].
With `COc1ccc(S(=O)(=O)Nc2ccc3c(c2)CCC3)cc1` the activity, negative = toxicity was inconclusive: -34.8% [cytotoxic].
For `Cc1ccc(S(=O)(=O)c2cc3c(=O)n4ccccc4nc3n(CC3CCCO3)c2=N)cc1C` (stereo not given), the Potency was inconclusive [cytotoxic, full curve, poor fit].
With `COc1cc2c(cc1OC)CN(C(=O)c1cc3ccccc3oc1=O)CC2` the Potency was active: 16.4 µM.
With `CCCC(C)NS(=O)(=O)c1ccc(OC)c(C)c1` (stereo not given) the Potency was “inactive”.
With `COc1cccc(Nc2nc(C(N)COCc3ccccc3)cs2)n1` (stereo not given) the Potency was inconclusive [cytotoxic, single point].
With `N/C(Cn1cncn1)=N\NC(=O)C(=O)Nc1cccc(C(F)(F)F)c1` the Potency was “inactive”.
For `COc1cc(CN2C(=O)C(CCc3ccccc3)ON=C2c2cnccn2)cc(OC)c1` (stereo not given), the Potency was inconclusive [cytotoxic, partial curve].
For `Cc1csc(NC(=O)c2cc3c(C)nn(Cc4ccccc4Cl)c3s2)n1`, the Potency was inconclusive [cytotoxic, single point].
In the case of `Cc1ccc(NC(=O)CSc2nn(-c3ccccc3)c(=S)s2)cc1S(=O)(=O)N(C)C`, the Potency is reported as inconclusive [cytotoxic, partial curve].
With `CCCCCCC(=O)N1C/C=C\C(c2ccc(OC)cc2)N(Cc2ccc(F)cc2)C(=O)[C@H]1Cc1ccccc1` (stereo not given in full) the Potency was inconclusive [cytotoxic, partial curve].
In the case of `CCC1(CC)CNC(=O)NC1`, the Potency is reported as “inactive”.
With `COc1ccc(C2OC(=O)CC2C(=O)NC2CCCC(C)C2C)cc1OC` (stereo not given) the Potency was “inactive”.
With `O=C(CN1CCOCC1)N/N=C/c1ccc(-c2cccc(Cl)c2Cl)o1` the Potency was “inactive”.
With `COc1ccc(NC(=O)c2cc(CN3C(=O)c4ccccc4C3=O)ccc2OC)cn1` the Potency was active: 20.6 µM.
With `Cc1c(C#N)c(N)nc2c3c(sc12)NC(=O)CC3c1ccc(Cl)cc1` (stereo not given) the Potency was active: 16.4 µM.
In the case of `Oc1c(Cl)cc(CN2CCOCC2)c2cccnc12`, the Potency is reported as active: 5.8 µM.
With `Oc1c(Br)cc(Br)cc1CNc1cccc2cccnc12` the Potency was inconclusive [cytotoxic, single point].
For `O=c1[nH]c(=O)c2nc3c4ccccc4c4ccccc4c3nc2[nH]1`, the Potency was “inactive”.
For `CC(C)(C)c1cc(C(=O)CCN2CCOCC2)cc(C(C)(C)C)c1O`, the Potency was inconclusive [cytotoxic, single point].
With `Nc1c(NC2CCCCC2)c2ccccc2oc1=O` the Potency was inconclusive [cytotoxic, single point].
For `Nc1nc(Cl)c2ncn(C3OC(CO)C(O)C3O)c2n1` (stereo not given), the Potency was inconclusive [cytotoxic, single point].
In the case of `CC(=O)Nc1cc(-c2ccc(C(=O)NC3CC3)cc2)cn2c(-c3cccc(C(C)=O)c3)cnc12`, the Potency is reported as inconclusive [cytotoxic, single point].
With `CC(=O)Nc1cccc(-c2ccnc3c2CC(C)(C(=O)Nc2ccc(Cl)c(C(F)(F)F)c2)O3)c1` (stereo not given) the Potency was active: 23.1 µM.
For `C=CCN1C=C/C(=C\C=C(C#N)C#N)c2ccccc21`, the activity, negative = toxicity was inconclusive: -9.23% [cytotoxic].
For `CC1(CCc2ccc3c(c2)OCO3)NC(=O)c2ccccc2N1` (stereo not given), the Potency was inconclusive [cytotoxic, single point].

Source: PubChem BioAssay AID686971 (National Center for Advancing Translational Sciences (NCATS), 2013)
Potency is read from the fitted curve at half-maximal effect; tags tell the direction and shape of the fitted curve.
